According to ChEMBL document CHEMBL1201862, “PubChem BioAssay data set” (2004):
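In this assay, cells in 96-well plates receive the compound at five concentrations for 48 hours. Endpoints are linearly interpolated between the surrounding concentrations. Here, GI50 denotes the concentration required for 50% inhibition of growth.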 The source made the active and inactive calls. Rule as the data show it: active = GI50 up to about 1.1 µM and inactive = higher.

tested on: NCI-H322M; experiment: growth of human tumour cells (NCI), 48 h

| SMILES | GI50 |
| --- | --- |
| CC1=C(C(=O)Nc2ccccc2C)C(/C=C/c2ccccc2)C(C(=O)Nc2ccccc2C)=C(C)N1 | inactive: > 100 µM |
| Cc1ccc(/C=C2\CCCCCC2=O)cc1 | inactive: > 100 µM |
| O=C(Nc1ccc(Cl)cc1)c1cc2c(cc1Cl)SC(NNCCO)=NS2(=O)=O | inactive: > 100 µM |
| COc1cc(CNc2cnc3ccc(N)cc3n2)cc(OC)c1OC | inactive: > 100 µM |
| CC1CCC2c3c([nH]c4ccccc34)C3C(=O)N(c4ccccc4)C(=O)C3C2C1 (configuration not stated) | inactive: > 250 µM |
| NC(=O)C(=CN1C(=O)CC(=O)NC1=S)C(N)=O | inactive: > 100 µM |
| CCCC(=O)OCC1OC(n2cc(F)c(=O)[nH]c2=O)CC1OC(=O)CCC (configuration not stated) | inactive: 2.33 µM |
| NC(CCCNc1ccc(O)cc1)C(=O)O (configuration not stated) | inactive: > 100 µM |
| CC1=C(C(=O)Nc2ccccc2C)C(c2ccccc2O)C(C(=O)Nc2ccccc2C)=C(C)N1 | inactive: 25.1 µM |
| Cc1ccccc1OC(C)C(=O)NN1C(=O)CC(=O)N(c2ccccc2)C1=S (configuration not stated) | inactive: 64.1 µM |
| CC[C@@]12N=C(N(C)C)C[C@]1(O)ON=C2C | inactive: > 100 µM |
| NCC(=O)Nc1ccccc1 | inactive: > 100 µM |
| COc1ccc(C2C(Cl)C(=O)N2NC(=O)c2ccc(NC(C)=O)cc2)cc1 (configuration not stated) | inactive: > 100 µM |
| [N-]=[N+]=NC1(c2ccccc2)C(=O)Nc2ccccc2C1=O (configuration not stated) | inactive: 88.5 µM |
| COc1ccc(NC(=O)C2=C(SC)C(C#N)C(=O)N=C2N)cc1 (configuration not stated) | inactive: > 100 µM |
| COC(=O)[C@@H]1CN(C(=O)c2ccccc2)C(=O)N1C(=O)OCc1ccccc1 | inactive: > 100 µM |
| N=C(N)C(/N=N\c1ccccc1)C(N)=O (configuration not stated) | inactive: > 100 µM |
| CCc1cccc(C)c1NC(=O)C1=C(C)NC(C)=C(C(=O)Nc2c(C)cccc2CC)C1c1ccc([N+](=O)[O-])cc1 | inactive: 44.9 µM |
| N/C(=N\O)N/N=C/c1ccc2c(c1)OCCO2 | inactive: 4.28 µM |
| CC1(C)C(=O)/C=C\C(=O)C(C)(C)C2=CC=C(O2)C(C)(C)C(=O)C(Br)C(Br)C(=O)C(C)(C)C2=CC=C1O2 (configuration not stated) | inactive: > 100 µM |
| CC1=C(C)SC(=C2Sc3c(n(C)c(=O)n(C)c3=O)S2)S1 | inactive: > 100 µM |
| O=C1c2ccccc2C(=O)N1Cc1ccccc1-c1c2nc(c(-c3ccccc3CN3C(=O)c4ccccc4C3=O)c3ccc([nH]3)c(-c3ccccc3CN3C(=O)c4ccccc4C3=O)c3nc(c(-c4ccccc4CN4C(=O)c5ccccc5C4=O)c4ccc1[nH]4)C=C3)C=C2 | inactive: > 100 µM |
| COC(=O)N/N=C(\C)c1c(O)cc(C)oc1=O | inactive: > 100 µM |

| SMILES | GI50 |
| --- | --- |
| CSC1=N/C(=C\c2ccc(C)cc2)C(=O)N1CN1CCOCC1 | inactive: > 100 µM |
| Clc1sc(Cl)c2c1[C@H](Cl)C[C@@H]2Cl | inactive: 56.5 µM |
| CC(C)=CCC/C(C)=C/CC/C(C)=C/CC/C(=C/CC/C(C)=C\CC/C(C)=C/CC/C(C)=C/CC/C(C)=C/Cc1cc(O)ccc1O)CO | inactive: 9.68 µM |
| NC(=O)CCC(Nc1c2ccccc2[n+]([O-])c2ccccc12)C(=O)O (configuration not stated) | inactive: > 100 µM |
| O=c1c(-c2ccccc2F)coc2cc(F)ccc12 | inactive: > 100 µM |
| CN1CCN(C(=S)N(C(=O)c2ccc(Cl)cc2)C2CCCCC2)CC1 | inactive: > 100 µM |
| O=C1NN=CN2C(=O)CCC12 (configuration not stated) | inactive: > 100 µM |
| COc1ccc2c(c1)-c1nc(=S)n(CCCN(C)C)c3ccc([N+](=O)[O-])c(c13)N2 | active: 0.557 µM |
| COc1cc(CNc2ccc(SC)cc2)cc(OC)c1OC | inactive: 29.6 µM |
| CCSC(=O)/C=C1\CN(C(=O)OC(C)(C)C)C1C(=O)OC(C)(C)C (configuration not stated) | inactive: 9.16 µM |
| O=C(CN1CCN(c2ccccc2)CC1)N1CCc2c([nH]c3ccccc23)C1c1cccnc1 (configuration not stated) | inactive: 69.3 µM |
| CC(=O)NNc1nc(C)c(C(/C=C/c2ccccc2O)=N/NC(=O)c2ccncc2)s1 | inactive: > 100 µM |
| CCc1cccc(CC)c1NC(=S)NC(=O)c1ccc(Br)cc1 | inactive: 36.6 µM |
| Cc1cccc2c1Oc1ncccc1C2NC(=O)CN(C)C (configuration not stated) | inactive: > 10 µM |
| CCN(CC)CCOc1ccc(/C=C(\C#N)c2ccc(OCCN(CC)CC)cc2)cc1 | inactive: 14.6 µM |
| C/C(=N\c1ccc(N(C)C)cc1)c1ccccc1 | inactive: 47.2 µM |
| O=C(O)c1ccccc1/C=C1\Cc2ccccc2C1=O | inactive: > 100 µM |
| COC(=O)C1(Cc2ccc(C)cc2)Cc2c(C)cccc2C1=O (configuration not stated) | inactive: 45.3 µM |
| CC(C)(C)C(=O)c1c(O)c2ccccc2c2ccccc2c1=O | inactive: > 100 µM |
| CCN(CCCl)CCCCCNc1c2ccccc2nc2ccc(OC)cc12 | active: 0.71 µM |
| CN1C(=O)c2c(ccc3c2OCO3)C2C(O)Cc3cc4c(cc3C21)OCO4 (configuration not stated) | inactive: 4.93 µM |
| CCOC(=O)N1C2C=C(C)C(ON2C(=O)c2ccccc2)C2C(C)C(=O)N21 (configuration not stated) | inactive: > 100 µM |
| CC1(C)CC(=O)C(CC2C(=O)CCCC2=O)C(=O)C1 | inactive: > 100 µM |

| SMILES | GI50 |
| --- | --- |
| O=C(N/C(=C\c1ccc(/C=C(\NC(=O)c2ccccc2)c2nc3ccccc3s2)cc1)c1nc2ccccc2s1)c1ccccc1 | inactive: 12.8 µM |
| C=C[C@]1(C)CCC2=C(CCC3C2(C)CCC[C@@]3(C)COC(C)=O)C1 (some centres not stated) | inactive: 27.6 µM |
| CSc1nc(SC)c2cnn(CC3CO3)c2n1 (configuration not stated) | inactive: 36.6 µM |
| COc1ccc2c(c1)CC[C@@H]1C2CC[C@]2(C)C(=O)N(CCN3CCCC3)C(=O)CC12 (some centres not stated) | inactive: 21.8 µM |
| Cn1c(=O)c(-c2ccccc2)c(O)c2ccccc21 | inactive: > 100 µM |
| COc1cccc(/C=C/C(=O)c2sc(C(N)=S)nc2C)c1O | inactive: > 100 µM |
| O=S1(=O)c2ccccc2N2C(c3ccccc3)=NOC2(c2ccccc2)CC1c1ccc(Br)cc1 (configuration not stated) | inactive: > 100 µM |
| CC1NOC(NS(=O)(=O)c2ccc(/N=N/c3c(O)c(C(=O)O)cc4ccccc34)cc2)C1C (configuration not stated) | inactive: > 100 µM |
| O=C(OCc1ccccc1)c1nc2ccccc2n1S(=O)(=O)c1ccccc1 | inactive: > 100 µM |
| Oc1cccc(-c2cc(=S)ss2)c1 | inactive: 21.3 µM |
| CC(=O)N(CN1C(=O)CCC1C(=O)O)c1ccc(C)cc1 (configuration not stated) | inactive: > 100 µM |
| O=C(NCc1cccnc1)C(=O)NCc1cccnc1 | inactive: > 100 µM |
| COc1c(Cl)cc(Cl)cc1S(=O)O | inactive: > 100 µM |
| O=C(O)C1CC2C=CCC(C2)C1 (configuration not stated) | inactive: > 100 µM |
| CCOC1NC(=O)Oc2cc3ccccc3cc21 (configuration not stated) | inactive: 68.7 µM |
| CN(C)c1ccc(/C=C/C=C\c2cc(/C=C/C=C/c3ccc(N(C)C)cc3)[s+]c3ccccc23)cc1.[O-][Cl+3]([O-])([O-])[O-] | inactive: > 100 µM |
| O=C(O)c1cnc(-n2[nH]c3c(c2=O)CCCC3)[nH]c1=O | inactive: > 100 µM |
| CN(C)c1ccc(/C=C/c2cc[n+](C)c3ccccc23)cc1 | inactive: 3.96 µM |
| CCC1CCCCN1CC(C(C)=O)C(c1ccccc1)c1c(O)c2ccccc2oc1=O (configuration not stated) | inactive: > 100 µM |
| COc1c(Br)cc(/C=C(\C#N)c2cccnc2)cc1Br | inactive: > 100 µM |
| O=C(c1ccc(Cl)cc1)c1ccc(OCCSCCCCCCCCCCSCCOc2ccc(C(=O)c3ccc(Cl)cc3)cc2)cc1 | inactive: > 100 µM |
